# Reference: article PMC4336329 (PLoS ONE, 2015)
# Hit rate of the full screen: of about 310,000 compounds, about 2,200 (0.71%) showed an effect of 50% or more. Effects have a minus sign here. The list shows a part of the results.
# Biological target: human ether-à-go-go-related gene (hERG) potassium channel (human, UniProt Q12809)
# Test: primary screen, population patch clamp on CHO cells stably expressing hERG
# human ether-à-go-go-related gene (hERG) potassium channel, sequence (Q12809 whole entry, looked up): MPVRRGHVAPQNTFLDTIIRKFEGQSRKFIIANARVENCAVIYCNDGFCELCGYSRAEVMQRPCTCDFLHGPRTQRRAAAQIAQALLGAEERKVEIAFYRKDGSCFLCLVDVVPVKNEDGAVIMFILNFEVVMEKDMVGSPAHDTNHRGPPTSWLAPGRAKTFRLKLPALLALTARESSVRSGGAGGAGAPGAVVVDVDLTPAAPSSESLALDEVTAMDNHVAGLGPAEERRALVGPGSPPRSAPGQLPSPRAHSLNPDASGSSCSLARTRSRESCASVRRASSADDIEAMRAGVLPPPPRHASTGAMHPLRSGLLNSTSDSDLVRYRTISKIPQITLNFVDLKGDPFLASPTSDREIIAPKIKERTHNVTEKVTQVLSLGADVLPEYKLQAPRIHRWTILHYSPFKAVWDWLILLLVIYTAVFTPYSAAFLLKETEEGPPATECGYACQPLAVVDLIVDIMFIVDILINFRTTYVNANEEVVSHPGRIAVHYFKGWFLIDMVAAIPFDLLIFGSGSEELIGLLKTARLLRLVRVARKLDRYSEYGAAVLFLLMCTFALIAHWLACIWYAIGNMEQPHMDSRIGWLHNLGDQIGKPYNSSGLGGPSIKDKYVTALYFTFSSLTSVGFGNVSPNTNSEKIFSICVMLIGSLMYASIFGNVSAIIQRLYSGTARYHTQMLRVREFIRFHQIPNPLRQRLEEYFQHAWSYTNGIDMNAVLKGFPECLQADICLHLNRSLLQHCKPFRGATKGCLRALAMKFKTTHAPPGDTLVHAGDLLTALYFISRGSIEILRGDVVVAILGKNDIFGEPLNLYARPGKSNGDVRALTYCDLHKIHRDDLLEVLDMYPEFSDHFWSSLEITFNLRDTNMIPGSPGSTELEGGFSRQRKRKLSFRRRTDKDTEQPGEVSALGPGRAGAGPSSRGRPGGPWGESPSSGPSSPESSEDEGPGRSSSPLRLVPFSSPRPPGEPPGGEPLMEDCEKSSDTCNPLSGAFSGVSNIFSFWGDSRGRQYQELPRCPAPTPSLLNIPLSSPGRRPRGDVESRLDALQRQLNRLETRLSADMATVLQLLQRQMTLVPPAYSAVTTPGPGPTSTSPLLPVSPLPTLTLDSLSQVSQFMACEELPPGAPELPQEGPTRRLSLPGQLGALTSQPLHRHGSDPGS
row,Compound,"hERG current change (%, negative = inhibition) at 1uM"
1,CC(C(=O)N1CCN(C(=O)c2ccco2)CC1)N1C(=O)NC2(CCCCC2C)C1=O (centres unmarked),12.7%
2,CCCCC(CC)C(=O)Nc1cc([N+](=O)[O-])ccc1F (centres unmarked),3.96%
3,CN(CC(=O)Nc1ccccc1C(F)(F)F)C(=O)CSc1nc(N)cc(N)n1,9.61%
4,CC(C)c1ccc(S(=O)(=O)/N=C2\C=C(NS(=O)(=O)c3ccccc3)C(=O)c3ccccc32)cc1,-3.11%
5,COc1ccc(-c2[nH]ncc2CN2CCCC(C(=O)c3cccc(OC)c3)C2)cc1 (centres unmarked),-29.5%
6,CCN1CCN(C(=O)CCNC(=O)Cn2cnc3ccccc3c2=O)CC1,15.8%
7,Cc1cc(OCc2nc(-c3ccncc3)no2)cc(C)c1Cl,14.8%
8,CCOC(=O)Cc1csc(NC(=O)CSc2nc(C)cc(=O)[nH]2)n1.Cl,1.47%
9,CC1CCCCN1S(=O)(=O)c1ccc(S(=O)(=O)NCCc2ccncc2)cc1 (centres unmarked),-4.19%
10,NC(=O)c1cc(NC(=O)CCCc2nc3ccccc3s2)cc(C(N)=O)c1,12.4%
11,COc1cccc(CC(=O)OCC(=O)NCC(=O)Nc2cccc(C)c2C)c1,13.9%
12,O=C1NC(=O)/C(=C/c2ccccc2Oc2ccc(Cl)cc2)S1,3.77%
13,CCc1ccc(NC(=O)CSc2ccc(-c3sc(C)nc3C)nn2)cc1,12.7%
14,O=C(c1ccc(-c2ccccc2)cc1)C1CCCN(C(=O)c2ccncc2)C1 (centres unmarked),5.72%
15,Cc1ccsc1C(=O)N/N=C/c1ccc([N+](=O)[O-])cc1,10.4%
16,COc1ccc(C(C)=O)cc1CSc1ccc(S(=O)(=O)N2CCOCC2)cn1,1.53%
17,Nc1nc(NCc2ccco2)nc(NC2CCCCC2)c1[N+](=O)[O-],13.7%
18,CCC(CC)c1nnc(NC(=O)C2CCN(C(=O)c3ccco3)CC2)s1,18%
19,Cc1cc(CN(C)C(=O)c2cc(COc3ccc(F)cc3Cl)on2)n[nH]1,5.99%

row,Compound,"hERG current change (%, negative = inhibition) at 1uM"
1,Cc1ccc(Sc2ncnc(N)c2[N+](=O)[O-])cc1,5.98%
2,COc1cccc(NC(=O)N2CCCC2C(=O)NC23CC4CC(CC(C4)C2)C3)c1 (centres unmarked),16.3%
3,CCOc1ccc(OC(=O)NC(c2ccccc2)C(Cl)(Cl)Cl)cc1 (centres unmarked),1.58%
4,CCCOC(=O)c1ccc(NC(=O)c2cc(=O)[nH]c3ccccc23)cc1,9.89%
5,Cc1ccc(C)c(NC(=O)Cc2coc3cc4c(cc23)CCC4)c1,5.49%
6,O=C(NCc1ccco1)/C(=C/C=C/c1ccccc1)NC(=O)c1ccco1,2.05%
7,Cn1cnnc1SCC(=O)NNC(=O)c1ccc(Cl)cc1,10.9%
8,CN1C2CCC1CC(NC(=O)c1cc(S(=O)(=O)N(C)C)c(Cl)cc1Cl)C2 (centres unmarked),8.12%
9,CC1(C)C(=O)OC(c2cccc([N+](=O)[O-])c2)C2(CCCCC2)C1=O (centres unmarked),10.7%
10,CS/C(N)=N/C(=S)Nc1cccc(Cl)c1,2.7%
11,O=C1/C(=C/c2ccccn2)SC(=S)N1c1ccc(O)cc1,1.74%
12,CN1C(=O)NC(=O)C2(Cc3ccccc3N3CCOCC32)C1=O (centres unmarked),22.9%
13,Cc1cc(C)c2cc(C#N)c(N3CCCN(C(=O)c4cnccn4)CC3)nc2c1,3.02%
14,CC(NC(=O)COc1cccc(Br)c1)C(=O)O (centres unmarked),8.08%
15,O=C(CC(C(=O)O)c1ccc(Cl)cc1)c1ccc(Br)cc1 (centres unmarked),12.5%
16,CCCn1c(SCC(N)=O)nc2c(c1=O)C1(CCCC1)Cc1ccccc1-2,11.4%
17,COC(=O)C1=C(N)N(c2ccc(F)cc2)C2=C(C(=O)CCC2)C1c1ccc2c(c1)OCO2 (centres unmarked),-5.63%
18,COc1cc(NC2c3ncccc3C(=O)N2Cc2ccco2)cc(OC)c1OC (centres unmarked),15.3%
19,O=C(CSc1n[nH]c(=O)[nH]c1=O)Nc1cccc(S(=O)(=O)N2CCOCC2)c1,13.7%

row,Compound,"hERG current change (%, negative = inhibition) at 1uM"
1,COc1ccc(NC(=O)c2cc(C)n(Cc3cccs3)c2C)cc1,14.5%
2,Cc1ccc(C)c2c1cc(C)c1nnc(SCc3ccccn3)n12,12.3%
3,O=S(=O)(c1cccc(F)c1)N1CCN(C(=S)NCc2ccccc2)CC1,9.9%
4,COc1ccc(CC(=O)Nc2c(C(=O)N3CCN(c4ccccc4OC)CC3)oc3ccccc23)cc1OC,9.46%
5,Cc1cccn2cc(-c3ccccc3)nc12,3.89%
6,COc1ccc(OC)c(NC(=O)c2ccc(-c3csc(C)n3)cc2)c1,19.2%
7,O=C1CCCC2=C1C(c1cccs1)n1nc(SCc3ccccc3)nc1N2 (centres unmarked),-2.63%
8,COc1cccc(NC(=O)Nc2nnc(N3C(C)CCCC3C)s2)c1 (centres unmarked),13.7%
9,COC(=O)[C@@H](NC(=O)NCc1ccco1)C(C)C,6.35%
10,O=C(CCCn1c(=O)c2sccc2n(CC(=O)OCc2ccccc2)c1=O)NCc1ccco1,3.46%
11,Cc1nnc(NC(=O)C2CCN(S(=O)(=O)c3ccc(Cl)cc3)CC2)s1,12.3%
12,COC(=O)Cc1ccc(NC(=S)NN2CCOCC2)cc1,9.36%
13,CC1(C)CC(=O)CC(C)(C)N1OC(=O)c1ccccn1,7.83%
14,O=C(c1cccnc1)C1CCCN(Cc2nc(-c3cnccn3)no2)C1 (centres unmarked),-7.93%
15,COc1cccc(/C=N/NC(=O)CSc2ccccc2C)c1OC,13.6%
16,CCOC(=O)Cn1c(C)nc2c(C(=O)OCC)sc(C)c2c1=O,1.88%
17,O=C(NC(Cc1c[nH]c2ccccc12)C(=O)Nc1ccc(F)cc1)c1cccs1 (centres unmarked),-1.38%
18,Cc1c(C(N)=O)sc2ncn(CC(=O)N3CCC(C)CC3)c(=O)c12,-4.75%
